In the supplement of paper PMC9990464:
Where a name gives a salt, the structure may show the parent alone. The list shows a part of the results. Most values come without repeats; read them as rough.

Assays:
Assay in all cases: area under viability curve (10 nM-1 µM), viability relative to solvent or trametinib-only control (AUC (arbitrary, % viability x concentration range)); higher = less growth inhibition (more viable cells)
[1] = test system: SJNB8; settings: 72 h compound exposure (96 h after seeding) h; trametinib co-treatment 0 µM
Description: (§1)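 Four neuroblastoma cell lines (KCNR, SKNBE, SJNB8, SKNAS) were seeded in 384-well plates. At 24 h, 1 µM trametinib or DMSO was added, followed by library compounds at 10 nM, 100 nM and 1 µM. Viability was read by MTT at 96 h and normalised to solvent-treated cells (DMSO arm) or to trametinib-only cells (trametinib arm). The area under the 3-point viability curve was computed in GraphPad Prism; units are as given (approx. 100000 = no effect).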

[2] = test system: SKNAS; settings: 72 h compound exposure (96 h after seeding) h
Description: as §1

[3] = test system: SKNBE; settings: 72 h compound exposure (96 h after seeding) h
Description: as §1
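Further: KCNR is a neuroblastoma cell line carrying an ALK mutation, in this DMSO arm without trametinib, viability was normalised to solvent-treated cells.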

Row | Compound | area under viability curve [1] | area under viability curve ([2]; trametinib co-treatment 0 µM) | area under viability curve ([2]; trametinib co-treatment 1 µM) | area under viability curve ([3]; trametinib co-treatment 0 µM) | area under viability curve ([3]; trametinib co-treatment 1 µM)
1 | CCCN(CCN1CCN(c2ccccc2OC)CC1)C1CCc2ncsc2C1 (stereo not given) | 80400 | 103000 | 103000 | 106000 | 111000
2 | CC(/C=C/C(=O)NO)=C\[C@@H](C)C(=O)c1ccc(N(C)C)cc1 [Trichostatin A] | 57800 | 34500 | 28900 | 36600 | 9610
3 | Cc1cn(-c2cc(NC(=O)c3ccc(C)c(Nc4nccc(-c5cccnc5)n4)c3)cc(C(F)(F)F)c2)cn1 [Nilotinib HCl] | 90400 | 104000 | 96100 | 104000 | 90400
4 | CC(C)(C)OC(=O)Nc1ccc(-c2cc(C(=O)NCCCCCCC(=O)NO)no2)cc1 | 70000 | 78500 | 100000 | 88800 | 97700
5 | COc1cccc2c1C(=O)c1c(O)c3c(c(O)c1C2=O)C[C@@](O)(C(=O)CO)C[C@@H]3O[C@H]1C[C@H](N)[C@H](O)[C@H](C)O1 [Adriamycin] | 62600 | 39800 | 33200 | 56100 | 13600
6 | O=c1[nH]c(=O)n(C2CCCO2)cc1F (stereo not given) [Tegafur] | 86600 | 92600 | 98600 | 108000 | 110000
7 | Cc1nc(N)sc1-c1ccnc(Nc2ccc(N3CCOCC3)cc2)n1 | 81200 | 115000 | 80600 | 93000 | 92400
8 | COCCNCc1ccc(-c2cc3nccc(Oc4ccc(NC(=S)NC(=O)Cc5ccc(F)cc5)cc4F)c3s2)nc1 [Glesatinib] | 92800 | 113000 | 113000 | 116000 | 104000
9 | Cc1ccc(NC(=O)c2ccc(CN3CCN(C)CC3)cc2)cc1Nc1nc(-c2cccnc2)cs1 [Masitinib] | 79000 | 99000 | 108000 | 106000 | 118000
10 | Oc1ccc(/C=C/c2cc(O)cc(O)c2)cc1 [Resveratrol] | 86200 | 129000 | 96400 | 117000 | 109000
11 | CC[C@@]1(O)C(=O)OCc2c1cc1n(c2=O)Cc2cc3c([N+](=O)[O-])cccc3nc2-1 [Rubitecan] | 87800 | 97200 | 88200 | 78300 | 63600
12 | CC(C)C[C@H](NC(=O)[C@H](Cc1ccccc1)NC(=O)c1cnccn1)B(O)O [Bortezomib] | 2890 | 8590 | 7500 | 11100 | 3520
13 | CCN(CC)CCNC(=O)c1c(C)[nH]c(/C=C2\C(=O)Nc3ccc(F)cc32)c1C [Sunitinib malate] | 94400 | 116000 | 100000 | 99400 | 99500
14 | Cc1ccc2nc(N)[nH]c(=O)c2c1Sc1ccncc1 [Nolatrexed 2HCl] | 81200 | 115000 | 97500 | 88600 | 85500
15 | CCc1c2c(nc3ccc(O)cc13)-c1cc3c(c(=O)n1C2)COC(=O)[C@]3(O)CC [7-Ethyl-10-hydroxycamptothecin] | 56200 | 22500 | 30800 | 22600 | 9240
16 | CC(=O)Nc1ccc(C(=O)Nc2ccccc2N)cc1 [Tacedinaline] | 90800 | 117000 | 104000 | 106000 | 107000
